Source: the supplement of paper PMC8792480
This is one part of the list. Single values are uncertain, as repeats are few or missing.

Tested on: A549
Experiment: cell-surface PD-L1 MFI ratio relative to cisplatin alone (isotype-subtracted); higher = higher PD-L1 surface expression
Conditions: inducer: cisplatin 4 uM; 10 µM; 24 h
Protocol: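 A549 and H460 NSCLC cells were treated with each library drug at 10 uM, then with radiation (8 Gy) or cisplatin (4 uM), and incubated for 24 h. Cell-surface PD-L1 was measured by flow cytometry as an MFI ratio: (MFI drug+inducer - MFI isotype)/(MFI inducer alone - MFI isotype). Hits were defined as ratio < 0.75.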

SMILES | cell-surface PD-L1 MFI ratio
COc1cc([C@@H]2c3cc4c(cc3[C@H](O)[C@H]3COC(=O)[C@@H]23)OCO4)cc(OC)c1OC [Picropodophyllin (PPP)] | inactive: 3.11
COC(=O)[C@@H](N)CCCNC(=N)N[N+](=O)[O-] | active: 0.718
CN1CCN(c2ccc([N+](=O)[O-])c3no[n+]([O-])c23)CC1 | inactive: 0.855
